The labels stand for the following.
B1: chr6:13639604:13639705:-|CDS|ENSG00000010017|unk|total|mutant (ssRNA)
RNA: GGGAGUUCUACAGUCCGACGAUCGACCGUGAAGUACGAUGUUUGGGAGGCCGAAGUCCAAAGUCUCAAGACAGUUAUCCUGUCCGUCCUCGACCUUUCCGCCGUCCAAGUAUGAGCCCCAGCCAUGGAAUGAAUAUCCACAAUCAACAGAGGAUUGAGCAUCA
B2: chr10:127452233:127452334:+|3pUTR|ENSG00000150760|msi1|total|mutant (ssRNA)
RNA: GGGAGUUCUACAGUCCGACGAUCGUAUAUAUGAUGGUUCUCCGAACUUGUUUUAAUUUUUGUGGUCCUUCCGUUUAUUAUAACCGGCGUCCACCAAUGAUUAUCCAUAUGUGUUCUUAAUUUUUAACUGCUGGAAGUGUUAAACAACAGAGGAUUGAGCAUCA
B3: chr2:61188134:61188237:-|CDS|ENSG00000115464|unk|FALSE|unique (ssRNA)
RNA: GGGAGUUCUACAGUCCGACGAUCAUCUCUCAGUUGUGGCCAUUCCAGAGGACUCUUUAGUCAUAUGCAGCAACAUGACAUUUUAGAUACCCUGUGUAGGACCAUUGAAUCUACAAUCCAUGUCGUCACAAGGAUAUCUGGCAACAACAGAGGAUUGAGCAUCA
B4: ENSG00000070961:be:win_1401|CDS|ENSG00000070961|bound_else_gene|NA|bound_elsewhere_windowed (ssRNA)
RNA: GGGAGUUCUACAGUCCGACGAUCAAAUGCUACAGCUAUUUGUUCAGAUAAAACAGGAACUUUGACAAUGAACAGAAUGACAGUCGUUCAAGCUUACAUAAAUGAAAAACAUUAUAAAAAGGUUCCUGAACCAGAAGCUAUUCCCAACAGAGGAUUGAGCAUCA
B5: chr1:183143318:183143419:+|3pUTR|ENSG00000135862|msi1|total|mutant (ssRNA)
RNA: GGGAGUUCUACAGUCCGACGAUCACAUCCUGUGCCAAAGGUAUUGGUCAUUCCGAAUGUCGGCCGCCAUCCAUCAGUGCUUUCCGUUAUUAUGAGUGCCGGACACUGAGCCAUCCGUGGGUCAGGAUGCAAUUAUUUAUAAAACAACAGAGGAUUGAGCAUCA
B6: chr2:169206329:169207250:-|CDS|ENSG00000081479|control|control|control (ssRNA)
RNA: GGGAGUUCUACAGUCCGACGAUCAACUGUCAUGUCUCUAGACUAUGACAGUGUAAGUGAUAGAAUCUACUUCACACAAAAUUUAGCCUCUGGAGUUGGACAGAUUUCCUAUGCCACCCUGUCUUCAGGGAUCCAUACUCCAACCAACAGAGGAUUGAGCAUCA
B7: chr7:6409910:6410025:-|CDS|ENSG00000164535|unk|total|mutant (ssRNA)
RNA: GGGAGUUCUACAGUCCGACGAUCCUCUGCUGCUCACUACCGCGCCAAGUGGUCACACGAAGCGGAAUUCAGCAAAAUACUCACCGGUCCGAAGAUGCUCACCGACCACAUGCCAGACAUCCUGAUGCGGGCCUUGGACAGCGUCAACAGAGGAUUGAGCAUCA
B8: ENSG00000141012:stop:overlap|stop_codon|ENSG00000141012|stop_codon|NA|stop_codon (ssRNA)
RNA: GGGAGUUCUACAGUCCGACGAUCAGUUAGGGAAGUGUCUGACACCUCCAGAAUCCAUUCCCAAGAAGUGCCUCUGGUCCCACUAGCACCUGCGCAGACUCAGGCCAGGCCUAGAAUCUCCGGUUGGCCCUGCAAGUGCCUGGACAACAGAGGAUUGAGCAUCA
B9: ENSG00000099250:stop:overlap|stop_codon|ENSG00000099250|stop_codon|NA|stop_codon (ssRNA)
RNA: GGGAGUUCUACAGUCCGACGAUCCAAUUCACGGAGAAAUGUGGUCAUCUGGAAAAGGAGUCUGCUCCCUGGAUGCGAAUCUGUAGCCUGGAUUCUGGAAGGCGAUGCUGAUUUAGGAGGUGGAGUGAAUGGAGAAUUGAAAAGCAACAGAGGAUUGAGCAUCA
B10: chr6:73594753:73594854:-|3pUTR|ENSG00000119899|unk|FALSE|unique (ssRNA)
RNA: GGGAGUUCUACAGUCCGACGAUCGGUUCACAUACCUGCCUGCUAGUCGGGCAACAUGAAGUAGGACAGUUCUGUUGAUUUUUUAGGGCCAUACUAAAGGGAAUGAGCUGAAACAGACCUCCUGAUACCUUUGCUUAAUUAAACCAACAGAGGAUUGAGCAUCA
B11: chr17:81921741:81921842:-|3pUTR|ENSG00000197063|msi1|total|mutant (ssRNA)
RNA: GGGAGUUCUACAGUCCGACGAUCAAUUAUAUGUUUAAAAGUUAAAGAAAAAAGAGCUGCAGAGUAUUUAUAAAACUGUCUUUCCGAAAAAAAACAAGCAAGAAGACCAUUUGACCAUAUGAAUGGAAAAGGGAAGAAAGUAUACAACAGAGGAUUGAGCAUCA
B12: chr2:47509289:47520906:-|three_prime_utr|ENSG00000184261|control|control|control (ssRNA)
RNA: GGGAGUUCUACAGUCCGACGAUCCGGCAACCCCAAAGCAUAUGGUGCAACUUUUCGUGGCUCUGAAUUACCUCCUCAGCAUUUAGAAUCCUGGCCCAGCCUAGCAGCUUCCUUCUGGUCGUCAGAAGUGAUAUAGUCACAGUUCAACAGAGGAUUGAGCAUCA
B13: chr9:93565116:93565217:+|3pUTR|ENSG00000048828|unk|FALSE|unique (ssRNA)
RNA: GGGAGUUCUACAGUCCGACGAUCAUAUACAAUACAUCAUACAUACUUUACAAGCAAGUUAAAUGGAGAUAAAGUUGAAAUCAUAGAAGAUGCAAAUGACCUUUCAAAAUCAACACAAUGUGUUCUGAAACUUUCGUGACUAAUCAACAGAGGAUUGAGCAUCA
B14: chr7:77627539:77627665:+|CDS|ENSG00000127947|unk|total|mutant (ssRNA)
RNA: GGGAGUUCUACAGUCCGACGAUCAAUAUUUCAACAGCAAGUGCCACAGUUUCUGCUGCCACCCGUACUGAAAGCAUUUCUACCCGGAAAGUAUUGCCAAUGUCCAUUGCCCGACAUAAUACCGCAGGAACAACACAUUCAGGUCAACAGAGGAUUGAGCAUCA
B15: ENSG00000136451:be:win_2051|3pUTR|ENSG00000136451|bound_else_gene|NA|bound_elsewhere_windowed (ssRNA)
RNA: GGGAGUUCUACAGUCCGACGAUCUUGUCAUAAUAAAAUGCAUUUCAGAGAAUAUGCAUUUUACCUUUGGGAAUAUGUUAAUUUCAGGCAGCAUUCCCUAUGGGAAAGGUGAUACCAGCUCUGAUAUGCAAAGCAUAUGAUAAUCAACAGAGGAUUGAGCAUCA
B16: ENSG00000064726:stop:overlap|stop_codon|ENSG00000064726|stop_codon|NA|stop_codon (ssRNA)
RNA: GGGAGUUCUACAGUCCGACGAUCUACCGGCUUUAGUUGUGAUGGGACAGCUAACACAUUCAGGGUCAUGUUCAAGGAACCCAUAGAGAUCCUGCCCAAUGUGUGCUACACAGCAUGUGCAACACUCAAAGGUCCAGAUUCCCACAACAGAGGAUUGAGCAUCA
B17: chr1:62648186:62648303:-|CDS|ENSG00000116641|unk|total|mutant (ssRNA)
RNA: GGGAGUUCUACAGUCCGACGAUCGAUGACCUUAAAAGACGUUCAAUGUCAACCGAUGAUACCCCAAGGGGCCGCUGGGCCUGCCGUAUCUUUGACUUGAAAAAUUCACUUCCUGAUGCUUUGCUUCCCAAUUUACUUGAUCGACAACAGAGGAUUGAGCAUCA
B18: chr6:37331633:37331734:+|3pUTR|ENSG00000065491|unk|FALSE|unique (ssRNA)
RNA: GGGAGUUCUACAGUCCGACGAUCCCGUUCCCCUUCUGCCCCAGUCUGAGCCAGUGAGGGGUAGCUUUUUAAAACCAUUAUUCUAGAUGGAGGAGGCACUGAUGCUUGUAACUCUGGAAAGAGGCCUACACCCAAGGGCUAGGACAACAGAGGAUUGAGCAUCA
B19: chr19:40393765:40398556:-|three_prime_utr|ENSG00000105227|control|control|control (ssRNA)
RNA: GGGAGUUCUACAGUCCGACGAUCCCAGCCCAGGGCCCUCACCCACCUCGGAGAGGCGUCCCCACCAUCGGAUCCAGGCUUGCUAGGGGUCCUGAACCAGGCUACUUCGAACCAGGAAAGCCAGAUUCCAGCCUGAGUGCUGGCCAACAGAGGAUUGAGCAUCA
B20: chr16:30193532:30193793:-|CDS|ENSG00000169627|control|control|control (ssRNA)
RNA: GGGAGUUCUACAGUCCGACGAUCGCCUUAGUAAGGGCGGAAGUGAGUUUUCCAGCGGAAGUGGCUCCUGUAAGGCAGCAAGGUAGCGUGGCCGGCGCCCGAGCUGGGGUUGUGUCCCUGCUGGGCUGCCGUUCCAGCUGGACUCAACAGAGGAUUGAGCAUCA
B21: chr7:77639488:77639589:+|3pUTR|ENSG00000127947|msi1|total|mutant (ssRNA)
RNA: GGGAGUUCUACAGUCCGACGAUCAGUAUUAUUGCCUUAAUGUCUCUUAACCCUGUUACACGCUGCUUGCCGACAUGUUAAUACCGUAAUACCUUUAUGAUAUAUUGAGUUUAAGGACUACUCUUUUUCUGUUUUAUCAUGUAUCAACAGAGGAUUGAGCAUCA
B22: chr6:4954605:4954706:+|3pUTR|ENSG00000153046|msi1|FALSE|bound_elsewhere (ssRNA)
RNA: GGGAGUUCUACAGUCCGACGAUCGGAUAAAUACUUCUGAUGAAAAAUCCGCUGAGGAGCAUACCCCAAACCAGACAUAUGCUUAGGAUUCAUGCUGAGAUAUCAAUUGGUUUCCCCUUCUUUUUAAAAUACGUCCAGUUCUUACAACAGAGGAUUGAGCAUCA

The other results are listed elsewhere or left out.

This test concerns the target MSI1 full-length (mouse, UniProt Q61474 1-362). As to the kind of experiment: nsRBNS (natural sequence RNA bind-n-seq); RBNS binding buffer (assumed for nsRBNS): 25 mM Tris pH 7.5, 150 mM KCl, 3 mM MgCl2, 0.01% Triton X-100, 500 ug/ml BSA, 20 U/ml SUPERase-In, 4 C; UNK is unkempt and MSI1 is Musashi-1; names of the RNAs are library labels; protein concentration not given here; high values mean tight binding.
UniProt Q61474, sequence (Q61474 whole entry): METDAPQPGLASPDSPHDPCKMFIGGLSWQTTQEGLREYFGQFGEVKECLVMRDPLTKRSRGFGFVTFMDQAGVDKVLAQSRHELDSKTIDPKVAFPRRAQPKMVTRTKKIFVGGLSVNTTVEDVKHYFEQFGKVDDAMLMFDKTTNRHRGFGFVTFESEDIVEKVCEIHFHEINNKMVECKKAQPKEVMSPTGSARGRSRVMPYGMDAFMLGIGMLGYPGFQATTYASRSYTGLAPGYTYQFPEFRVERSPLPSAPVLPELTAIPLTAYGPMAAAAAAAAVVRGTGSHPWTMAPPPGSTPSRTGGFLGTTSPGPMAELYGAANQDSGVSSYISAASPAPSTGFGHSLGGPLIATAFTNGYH
In the case of B1, the binding signal amounted to 0.302 enrichment R.
The result for B2 reads 0.679 enrichment R; that for B3, 0.347 enrichment R; that for B4, 0.413 enrichment R.
Molecule B5 had a binding signal of 0.319 enrichment R.
The result for B6 reads 0.679 enrichment R; that for B7, 0.446 enrichment R.
The result for B8 reads 0.527 enrichment R; that for B9, 0.543 enrichment R; that for B10, 0.746 enrichment R.
The molecule B11 registered a binding signal of 3.35 enrichment R.
For the molecule B12, the binding signal is 1.56 enrichment R.
The result for B13 reads 0.699 enrichment R.
Molecule B14 yielded a binding signal of 0.394 enrichment R.
The result for B15 reads 0.199 enrichment R.
In the case of B16 it was 0.464 enrichment R; in that of B17, 0.394 enrichment R; in that of B18, 0.844 enrichment R.
In the case of B19 it was 0.333 enrichment R.
With B20, the binding signal stood at 0.62 enrichment R.
The molecule B21 yielded a binding signal of 0.692 enrichment R.
The result for B22 reads 0.393 enrichment R.
